Measured values as given in patent US20220047715A1 (Johns Hopkins, published 2022).

Biological target: CD80 presented on compliable micropillars
Assay: cell-based or functional assay

B1: Cytotoxic T-Lymphocyte-Associated Antigen-4 (CTLA4), endogenous, on human MCF10A and MDA-MB231 cells (receptor)
chain: not shown
In the case of B1, the “stress on micropillars, CTLA4-CD80 bond against integrin-fibronectin bond” value is reported as 4 fold and the “stress on micropillars, cancer cells against normal cells” value is reported as about 2 fold.
